# Assay results: article PMC2289542 (The Journal of Cell Biology, 1992)
# B1: tau construct K12 (domain or fragment)
# chain: not shown
# B2: tau construct K11 (domain or fragment)
# chain: not shown
# Columns and labels:
# [1] = molecular target: the molecule itself; assay: electron microscopy
# [2] = molecular target: the molecule itself; assay: cross-linking
# [3] = molecular target: the molecule itself; assay: cross-linking; remark: listed apart in the source
# [4] = molecular target: the molecule itself; assay: cross-linking; remark: listed apart in the source
Protein,stoichiometry N [1],stoichiometry N [2],stoichiometry N [3],stoichiometry N [4]
B1,4,≥ 2,2,
B2,4 and 2,,,≥ 2

# Values joined by “and” are separate entries in the source; they are usually repeats but may differ in a detail not shown here. Equal entries are not always repeated.
